Test results published in publication PMC4336329 (PLoS ONE, 2015).
Among all 310,000 compounds or so, about 14,000 (4.5%) showed an effect of 50% or more. The effect is printed as a negative number. Some of the results follow.

Each molecule was assayed against human ether-à-go-go-related gene (hERG) potassium channel (human, UniProt Q12809) (assay: primary screen, population patch clamp on CHO cells stably expressing hERG).
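Further: peak tail current of the secondary pulse compared with the same well before compound.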

human ether-à-go-go-related gene (hERG) potassium channel, sequence (Q12809 whole entry, looked up): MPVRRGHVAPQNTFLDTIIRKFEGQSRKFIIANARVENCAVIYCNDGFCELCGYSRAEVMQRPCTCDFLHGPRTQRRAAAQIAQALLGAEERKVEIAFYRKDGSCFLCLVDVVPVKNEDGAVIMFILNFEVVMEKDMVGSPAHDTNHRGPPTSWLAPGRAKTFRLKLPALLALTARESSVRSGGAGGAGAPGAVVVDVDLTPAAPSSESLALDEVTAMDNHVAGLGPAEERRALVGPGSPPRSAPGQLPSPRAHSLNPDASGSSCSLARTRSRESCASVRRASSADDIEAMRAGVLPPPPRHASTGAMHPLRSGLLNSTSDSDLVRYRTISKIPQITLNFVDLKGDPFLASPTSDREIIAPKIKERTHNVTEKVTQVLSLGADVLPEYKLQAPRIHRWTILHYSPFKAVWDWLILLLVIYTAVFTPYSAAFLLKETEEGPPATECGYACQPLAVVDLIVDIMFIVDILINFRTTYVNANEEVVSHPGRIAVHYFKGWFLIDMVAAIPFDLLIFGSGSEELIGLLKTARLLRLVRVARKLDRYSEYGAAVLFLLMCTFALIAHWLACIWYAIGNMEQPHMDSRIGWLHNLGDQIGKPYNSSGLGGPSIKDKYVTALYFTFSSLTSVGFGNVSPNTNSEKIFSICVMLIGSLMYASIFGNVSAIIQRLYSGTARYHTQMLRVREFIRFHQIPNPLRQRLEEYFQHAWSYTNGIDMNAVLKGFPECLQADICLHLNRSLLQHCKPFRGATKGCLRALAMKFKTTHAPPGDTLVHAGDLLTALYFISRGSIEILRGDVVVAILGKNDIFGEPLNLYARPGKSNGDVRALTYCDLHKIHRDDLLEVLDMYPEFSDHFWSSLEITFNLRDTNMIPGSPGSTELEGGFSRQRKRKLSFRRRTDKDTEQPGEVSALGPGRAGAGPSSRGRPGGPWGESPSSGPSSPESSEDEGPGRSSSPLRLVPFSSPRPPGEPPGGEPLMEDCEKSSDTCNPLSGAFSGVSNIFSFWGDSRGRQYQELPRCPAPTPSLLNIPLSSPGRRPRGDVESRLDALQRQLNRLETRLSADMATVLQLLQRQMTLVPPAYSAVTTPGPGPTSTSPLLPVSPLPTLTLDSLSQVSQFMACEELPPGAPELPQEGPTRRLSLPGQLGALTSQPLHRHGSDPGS

Going from `Cc1nc(C(=O)Nc2cc(Cl)ccc2Cl)nn1-c1cc(OC(C)C)c(Cl)cc1Cl` to `CCC(=O)Nc1nc2ccc(NC(=O)c3cc(OC)c(OC)c(OC)c3)cc2s1`, the “hERG current change (%, negative = inhibition) at 10uM” value falls from -4.89% to -9.76%.

First: COc1ccccc1OCC(=O)NCCS(=O)(=O)N1CCN(c2ccc(F)cc2)CC1
Second: NS(=O)(=O)c1ccc(NC(=S)N2CCN(S(=O)(=O)c3ccc(F)cc3)CC2)cc1
The “hERG current change (%, negative = inhibition) at 10uM” value of the first is lower: -60.8% for the first, 10.1% for the second.

Going from `CN1Cc2sc(N)c(C#N)c2CC1(C)C.Cl` to `COCc1cc(C)nc(N2CCc3ccccc32)c1C#N`, the “hERG current change (%, negative = inhibition) at 10uM” value rises from -13.6% to 3.29%.

First: O=C(NCc1ccco1)/C(=C\c1cccs1)NC(=O)c1ccco1
Second: S=C(NCCc1ccccn1)Nc1ccccc1Cl
The “hERG current change (%, negative = inhibition) at 10uM” value of the first is lower: -0.334% for the first, 19.3% for the second.

Compared with `Cc1ccc(C(=O)Nc2sc3c(c2C(=O)O)CCCCC3)o1`, `CC(Oc1ccc2c3c(c(=O)oc2c1)CCCC3)C(=O)NCC1CCC(C(=O)O)CC1` (stereo not drawn) is higher in “hERG current change (%, negative = inhibition) at 10uM” value: 11.3% for the first, 13.2% for the second.

Compared with `O=C1N(Cc2cccnc2)C[C@@H]2C[C@@H](c3ccc4nonc4c3)N3CCC[C@@]123`, `COc1ccc(NC(=O)CN2CCN(CC(=O)Nc3ccc4c(c3)OCO4)CC2)cc1` is lower in “hERG current change (%, negative = inhibition) at 10uM” value: -59.1% for the first, -78.1% for the second.

Compared with `CC(C)Cc1nnc(NC(=O)C2CCN(C(=O)c3ccc(Cl)cc3)CC2)s1`, `CCC(C)N1CCN(C(=O)c2cccs2)CC1.O=C(O)C(=O)O` (stereo not drawn) is higher in “hERG current change (%, negative = inhibition) at 10uM” value: -29.2% for the first, -10.6% for the second.

Compared with `O=C(Cn1cnc2ccccc2c1=O)c1ccc(OC(F)F)cc1`, `CCOc1ccc(OCCC(=O)NNC(=O)c2nn(C)c(=O)c3ccccc23)cc1` is higher in “hERG current change (%, negative = inhibition) at 10uM” value: -30.9% for the first, -13.1% for the second.

Going from `COCc1[nH]c(=S)[nH]c(=O)c1C` to `CCOc1cc(/C=C\c2nc(O)c([N+](=O)[O-])c(=O)[nH]2)ccc1OC(C)CC` (stereo not drawn), the “hERG current change (%, negative = inhibition) at 10uM” value falls from 16.7% to 5.36%.

First: CCOC(=O)c1[nH]c2ccc(OC)cc2c1NC(=S)N1CCN(c2cccc(C)c2C)CC1
Second: COc1cccc(NC(=O)CCN2C(=O)C3CC=CCC3C2=O)c1 (stereo not drawn)
The “hERG current change (%, negative = inhibition) at 10uM” value of the first is higher: 21.7% for the first, -21.4% for the second.

First: O=C(O)CC(Cn1cnnn1)c1ccccc1 (stereo not drawn)
Second: CC(Sc1c[nH]c2ccccc12)C(=O)O (stereo not drawn)
The “hERG current change (%, negative = inhibition) at 10uM” value of the first is higher: 25% for the first, 4.26% for the second.

Compared with `CC1C(=O)C(C)C(c2ccc3c(c2)OCO3)NC1c1ccc2c(c1)OCO2` (stereo not drawn), `CCn1c(CC(=O)Nc2ccccc2)nnc1SCc1nc2ccccc2c(=O)[nH]1` is lower in “hERG current change (%, negative = inhibition) at 10uM” value: 4.38% for the first, -6.36% for the second.
